# Data published in paper PMC4336329 (PLoS ONE, 2015).
# Screen size: about 310,000 compounds; about 2,200 (0.71%) showed an effect of 50% or more. Effects have a minus sign here. This is one part of the list.
# Biological target: human ether-à-go-go-related gene (hERG) potassium channel (human, UniProt Q12809)
# Test: primary screen, population patch clamp on CHO cells stably expressing hERG
# human ether-à-go-go-related gene (hERG) potassium channel, sequence (Q12809 whole entry, looked up): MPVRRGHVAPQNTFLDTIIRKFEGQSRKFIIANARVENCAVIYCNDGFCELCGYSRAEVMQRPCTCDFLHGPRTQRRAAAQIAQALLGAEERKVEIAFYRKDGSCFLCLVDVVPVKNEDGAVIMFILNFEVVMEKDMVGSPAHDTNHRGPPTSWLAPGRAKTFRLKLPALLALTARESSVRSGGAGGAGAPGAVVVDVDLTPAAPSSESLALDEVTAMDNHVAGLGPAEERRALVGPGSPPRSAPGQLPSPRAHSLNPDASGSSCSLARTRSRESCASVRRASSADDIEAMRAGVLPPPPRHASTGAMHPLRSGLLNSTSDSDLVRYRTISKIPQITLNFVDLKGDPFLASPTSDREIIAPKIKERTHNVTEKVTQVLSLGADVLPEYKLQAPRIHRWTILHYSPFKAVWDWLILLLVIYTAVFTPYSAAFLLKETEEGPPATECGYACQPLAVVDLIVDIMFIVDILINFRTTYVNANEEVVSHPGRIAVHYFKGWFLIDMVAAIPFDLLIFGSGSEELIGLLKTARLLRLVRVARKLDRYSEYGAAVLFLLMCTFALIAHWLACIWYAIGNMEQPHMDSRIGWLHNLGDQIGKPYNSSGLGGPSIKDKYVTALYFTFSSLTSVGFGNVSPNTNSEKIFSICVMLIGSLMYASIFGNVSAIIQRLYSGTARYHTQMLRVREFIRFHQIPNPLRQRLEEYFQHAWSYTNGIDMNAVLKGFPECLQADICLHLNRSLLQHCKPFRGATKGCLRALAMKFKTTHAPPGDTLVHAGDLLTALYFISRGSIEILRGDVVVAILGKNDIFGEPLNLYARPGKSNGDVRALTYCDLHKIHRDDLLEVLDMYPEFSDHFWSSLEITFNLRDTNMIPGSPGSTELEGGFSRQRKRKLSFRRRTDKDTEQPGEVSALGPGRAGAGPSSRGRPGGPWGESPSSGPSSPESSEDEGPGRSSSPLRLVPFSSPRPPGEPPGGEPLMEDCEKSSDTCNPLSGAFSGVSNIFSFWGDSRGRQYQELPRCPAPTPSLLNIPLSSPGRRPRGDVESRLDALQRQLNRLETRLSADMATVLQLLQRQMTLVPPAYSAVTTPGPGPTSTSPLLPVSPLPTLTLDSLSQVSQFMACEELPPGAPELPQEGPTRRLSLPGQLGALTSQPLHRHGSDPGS
row,Compound,"hERG current change (%, negative = inhibition) at 1uM [%]"
1,CCN(CC)CCN(C(=O)c1ccc2c(c1)CCCC2)c1nc2c(C)cccc2s1.Cl,9.42
2,CCN(CC)S(=O)(=O)c1ccc(/C=C/C(=O)O)cc1,4.16
3,Cc1cccc(Cc2nnc(CCC(=O)N(C)CCc3ccccc3)o2)c1,7.36
4,O=C(NCCc1ccccc1)c1ccc(-c2ccccc2Cl)o1,7.88
5,CC(=O)Nc1ccc(-n2nnnc2SCC(=O)N2CCN(C(=O)c3ccco3)CC2)cc1,13.2
6,O=C(Nc1ccc(Cl)cc1)N[C@@H]1c2c(ccc3ccccc23)OC[C@@H]1CO,10.5
7,COC(=O)c1cc(Cl)cc(Cl)c1OS(=O)(=O)N(C)C,1.43
8,CSc1ccc(Cl)c(C(=O)Nc2ccc(Cl)cn2)c1,6.57
9,COC(=O)c1c(C)[nH]c(C)c1-c1ccccc1,-2.09
10,CCOC(=O)c1ccc(CC2SC(N)=NC2=O)cc1 (stereo not drawn),0.175
11,O=C(CNC(=O)C(c1ccccc1)c1ccccc1)N/N=C/c1ccc(O)c([N+](=O)[O-])c1,9.77
12,CCOC(=O)C1(Cc2ccccc2Cl)CCN(C(=O)CN2CCOC2=O)CC1,20.5
13,CCCNS(=O)(=O)c1cc2c3c(c1)C(C)C(=O)N3CCC2 (stereo not drawn),22.6
14,O=C(COC(=O)CC1CCCC1)Nc1cc2c(cc1Cl)C(=O)c1ccccc1C2=O,3.26
15,COc1ccccc1CCC(=O)OCC(=O)Nc1ccc(C(N)=O)cc1,8.88
16,O=C(O)c1ccccc1C(=O)OCc1ccccc1,9.44
17,O=c1sc2ccccc2c(N2CCOCC2)c1[N+](=O)[O-],11.1
18,Cc1ccc(C2=NN(CC(=O)NCCN(CC(C)C)CC(C)C)C(=O)CC2)cc1,-3.88
19,Cc1ccc(S(=O)(=O)n2ccc(-c3ccc(OCc4c(F)cccc4Cl)cc3)n2)cc1,10.6
20,Cc1cc(C)c(-c2cc(C)nc3ncnn23)c(C)c1,10.7
21,O=C(O)c1cccc2c1C(=O)c1ccccc1C2=O,12.6
22,COc1ccc(NC(=O)CN(C)C(=O)c2oc3ccccc3c2C)cc1,0.906

row,Compound,"hERG current change (%, negative = inhibition) at 1uM [%]"
1,N#CCc1cc2ccc3cccc4ccc(c1)c2c34,10.6
2,CCc1ccc(NC(=O)CSc2nc(=O)n(CCCN3CCOCC3)c3c2CCC3)cc1,-0.632
3,Cc1ccc(S(=O)(=O)NCCNC(C)c2ccc(Br)cc2)cc1 (stereo not drawn),1.97
4,O=C(CC1C(=O)NCCN1C1CCCC1)NCc1cccc(OC(F)(F)F)c1 (stereo not drawn),-0.913
5,O=S(=O)(c1ccc2oc3ccccc3c2c1)N1CCCC1,4.66
6,N#Cc1sc2nc3c(cc2c1N)CCCC3,3.69
7,COc1ccc(CN2CCOCC2)c(C)c1C,-5.43
8,CCCc1cc(=O)oc2cc(C)cc(OCC(=O)N[C@@H](CSCc3ccccc3)C(=O)O)c12,-0.628
9,O=C(Cn1cnc2nc3n(c2c1=O)CCC3)NCc1ccccc1,4.67
10,COc1ccc(NC(=O)c2cnc3n(c2=O)CCS3)cc1OC,9.37
11,Cc1ccccc1NS(=O)(=O)c1ccc(C(=O)NCC(c2ccco2)N2CCCCC2)cc1 (stereo not drawn),16.3
12,O=C1N/C(=C\c2ccccc2)c2ccccc21,11.2
13,C=CC[C@]12CC=CC(=O)[C@@]1(O)O[C@H](c1ccc(OC)c(OC)c1)[C@H]2C,10.7
14,COCCNc1nnc(SCC(=O)NNC(=O)c2ccco2)s1,9.15
15,COc1ccc(-n2c(=S)[nH]c3cc(C(=O)N(C)Cc4ccccc4)ccc3c2=O)cc1,9.52
16,CC(=O)Oc1ccc(C(=O)Nc2cccc(C(=O)c3cccc(NC(=O)c4ccc(OC(C)=O)cc4)c3)c2)cc1,9.04
17,CCC(CO)NC(=O)C1C=C2c3cccc4[nH]cc(c34)CC2N(C)C1 (stereo not drawn),17.8
18,CC(=O)c1ccc(NS(=O)(=O)c2ccc(N/C=C/C(=O)c3ccc(F)cc3)cc2)cc1,11.5
19,COc1ccc(C2C(Oc3ccccc3)C(=O)N2c2ccc(C)c(C)c2)cc1OC (stereo not drawn),4.67
20,CC(C)(C)N(NC(=O)Nc1ccccc1)C(=O)c1ccccc1Cl,21.2
21,Cc1ccc(C)c(S(=O)(=O)N2CCN(C(=O)c3cncc(Br)c3)CC2)c1,6.33
22,CCC(=O)NS(=O)(=O)c1cccnc1Nc1ccc(Cl)cc1,12.9

row,Compound,"hERG current change (%, negative = inhibition) at 1uM [%]"
1,CCOC(=O)c1c(C)[nH]c(N=Nc2cccc(C)c2)c1C,10.5
2,O=C(O)Cn1cc(C(=O)c2ccco2)c2ccccc21,16.7
3,O=C(c1ccc(F)cc1)N1CCN(c2ccc([N+](=O)[O-])c(N3CCOCC3)c2)CC1,7.89
4,O=C(Nc1ccccc1C(=O)NCCCN1CCOCC1)c1ccc(Cl)cc1,-0.51
5,COc1cccc(C(C(=O)NC(C)(C)C)N(C(=O)CCC(=O)Nc2cc(C)on2)C(C)C)c1OC (stereo not drawn),15.5
6,COc1ccc(N=C(C)C2=C(O)c3ccccc3C2=O)cc1,4.73
7,Cc1cccc(NC(NC(=O)c2ccccn2)C(Cl)(Cl)Cl)c1 (stereo not drawn),-2.79
8,COc1ccc(C(=O)NCc2nnc(SCC(=O)N3CCOCC3)o2)cc1,6.33
9,CCCCOC(=O)COc1ccc(Cl)cc1Cl,12.1
10,COc1cccc(NC(=O)Cn2cc3c(n2)CCCCC3)c1,0.129
11,COc1ccc(CNC(=O)Cn2nc(C(F)(F)F)cc2C)cc1,13.1
12,O=C(Cn1c(COc2ccccc2)nc2ccccc21)Nc1cc(Cl)cc(Cl)c1,15.1
13,O=C(O)c1ccccc1NC(=O)c1cc2ccccc2oc1=O,17
14,COCCN(Cc1ccccc1)C(=O)c1ccc(C(=O)c2ccccc2)cc1,2.46
15,COc1ccccc1N1CCN(C(=O)C(Sc2ccccc2)c2ccccc2)CC1 (stereo not drawn),8.54
16,CSCCC(NC(=O)c1ccco1)C(=O)OCC(=O)N(Cc1ccccc1)C(C)(C)C (stereo not drawn),-12.5
17,Cc1ccccc1CSCCNC(=S)Nc1ccccc1,12.2
18,CCc1nc(N2CCN(C(=O)c3ccco3)CC2)c2c3c(sc2n1)CCCC3,-1.27
19,Cc1ccccc1OCc1nnc2n1CC(C)S2 (stereo not drawn),9.36
20,O=C(COC(=O)C1CCN(S(=O)(=O)c2ccc3c(c2)OCCO3)CC1)Nc1cc(C(F)(F)F)ccc1Cl,10.2
21,O=C(Nc1ccc2c(c1)OCO2)N1CCOCC1,4.95
22,O=C(c1cccc(C(F)(F)F)c1)N1CCOC12CCN(c1ncc(C(F)(F)F)cc1Cl)CC2,15.3

row,Compound,"hERG current change (%, negative = inhibition) at 1uM [%]"
1,CC1=N/C(=C\c2ccc(OC(C)C)cc2)C(=O)N1c1ccc(C(=O)O)cc1,8.07
2,CC1(C)NC(=O)N(CCOCCOc2ccccc2-c2ccccc2)C1=O,7.58
3,CC(=O)c1cc(CN2CCN(CCC(C)C)C(CCO)C2)cs1 (stereo not drawn),1.84
4,CC1(CCC(=O)N2CCCC(N3CCN(c4ccc(F)cc4)CC3)C2)CC1 (stereo not drawn),-37.2
5,COc1ccc2c(c1)[C@H]1[C@H](CO2)[C@H](c2ccccc2)[C@]2(C)C(=O)Nc3cc(OC)c(OC)cc3C(=O)N12,11.2
6,CCC(=O)C1CCCN(C(=O)CCc2nnc(C3(c4ccc(Cl)cc4)CCC3)o2)C1 (stereo not drawn),-0.0774
7,Cc1cc(=O)[nH]c2cc(Cl)ccc12,16.2
8,Cc1onc(-c2ccccc2)c1C(=O)N/N=C/c1cccc(O)c1,7.79
9,CC(=O)c1cccc(NC(=O)Cn2cnc(S(=O)(=O)N3CCC(C)CC3)c2)c1,9.44
10,Cc1ccc(C(=O)CNc2cccc(Cl)c2)cc1,13.4
11,COc1cc(NC(=S)NC(=O)c2ccc(C(C)(C)C)cc2)ccc1NC(=O)c1cccs1,18.4
12,O=C(COC(=O)c1ccc(S(=O)(=O)C(F)F)cc1)NC(=O)NC1CCCCC1,-13.2
13,O=C(CNC(=O)COc1ccccc1)NCCc1ccccn1,11.2
14,CC1CN(c2nc3c(c(=O)[nH]c(=O)n3C)n2Cc2ccccc2F)CC(C)O1 (stereo not drawn),2.17
15,COc1ccc(C(=O)NOCc2ccccc2)cc1,6.6
16,CC[C@@]12C(=O)N(c3cccc(Br)c3)C(=O)N1[C@H](c1ccc(F)cc1)[C@@H]1C(=O)N(C3CCCCC3)C(=O)[C@@H]12,3.27
17,CCN(CC)c1ccc(NC(=O)CCNC(=O)c2ccco2)cc1,13.8
18,Cc1ccnc(NC(=O)CCC(=O)N(CC(=O)NCc2ccc(F)cc2)Cc2ccco2)c1,-2.79
19,CCCN1C(=O)c2cc(C(=O)O)ccc2C1O (stereo not drawn),12.7
20,CCO[C@@H]1OC(C(=O)NC2CC2)=C[C@H](c2ccc3c(c2)OCO3)[C@H]1CCCO,16.5
21,COc1ccc(NC(=O)/C(C#N)=C/c2cccnc2)c(OC)c1,15.8
